Several values for one entry are separate records, joined by “and”; a condition that tells them apart may be missing. Equal entries are not always repeated. Hit rate of the full screen: of about 420,000 compounds, about 64,000 (15%) were called active. Inconclusive results, whose numbers are uncertain, are shown with a selection of clear calls. Calls follow the shape of the dose curve; as a rule, active = well fitted inhibition curve with a large enough effect; inconclusive = small, poorly fitted or top-dose-only effect; inactive = flat fitted curve, though single readings scatter. Potencies of inconclusive entries are doubtful fits and often do not repeat.
Test: qHTS for Inhibitors of human tyrosyl-DNA phosphodiesterase 1 (TDP1): qHTS in cells in absence of CPT; also: nearly all actives have a fitted effect of over 55% in size
Conditions: DT40 Tdp1-/- hTDP1 cells, no CPT, ATP luminescence, 48 h; activity change, negative = growth inhibition: at 46.2 µM (top of the series) unless noted
Summary of the method: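 Stably hTDP1-transfected Tdp1-null chicken DT40 cells were treated with library compounds minus camptothecin and grown for at least 48 hr at 37 °C, after which cellular ATP was quantified by luminescence.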
% is scaled to controls: 0 for no effect and ±100 for the full control effect; potency is read from the fitted curve at half-maximal effect; tags tell the direction and shape of the fitted curve.

| Structure (SMILES) | Potency | activity change, negative = growth inhibition |
| --- | --- | --- |
| CCOC(=O)c1c(-c2ccc(F)cc2)csc1NC(=O)CCN1CCOCC1 | active: 20.6 µM |  |
| COC(=O)c1sccc1-c1ccc(/C=N/OCc2c(Cl)cccc2Cl)o1 | inactive |  |
| Cc1ccc(C)c(NC(=O)CCCN2C(=O)COc3ccc(C)cc32)c1 | inconclusive: 16.4 µM [inhibitor, single point] |  |
| Cc1cc(C)cc(NC(=O)CSc2nnc(COc3ccccc3Cl)o2)c1 | inactive |  |
| COc1cc(OC)c(OC)cc1/C=N/NC(=O)c1ccc2nc[nH]c2c1 | inactive |  |
| CSc1ccc(C(=O)C2CCCN(C(=O)CCCn3cncn3)C2)cc1 (stereo not given) | inconclusive: 18.4 µM [inhibitor, single point] |  |
| O=C1NCCN(Cc2ccc(-c3ccccc3)cc2)C1CC(=O)N1CCN(CCO)CC1 (stereo not given) | inconclusive: 14.6 µM [inhibitor, partial curve] |  |
| NC(=O)c1c(NC(=O)c2ccncc2)sc2c1CCCC2 | active: 16.4 µM |  |
| CO/N=C(\Cn1ncc(N2CCCC2)c(Br)c1=O)c1ccc(Cl)cc1 | inconclusive: 23.1 µM [inhibitor, single point] |  |
| O=S(=O)(c1ccccc1)N1CCC2(CC1)CN(c1ccccn1)C2 | inconclusive: 25.9 µM [inhibitor, partial curve] |  |
| O=C(Nc1nnc(COc2ccc(F)cc2)s1)Nc1ccccc1F | inactive |  |
| Cc1oc(-c2ccc(Cl)cc2)nc1CS(=O)CC(=O)NCCCN1CCN(Cc2ccccc2)CC1 (stereo not given) | inconclusive: 16.4 µM [inhibitor, partial curve] |  |
| CN(C)CCN1C(=O)C(=O)/C(=C(/O)c2ccc(S(=O)(=O)N3CCOCC3)cc2)C1c1ccc(F)cc1 (stereo not given) | inactive |  |
| Cc1cccc(N(C(=O)c2csnn2)C(C(=O)NCc2ccccc2)c2ccc(C)o2)c1 (stereo not given) | inconclusive: 29.1 µM [inhibitor, single point] |  |
| Cn1cnc2c(=O)oc3ccc(S(=O)(=O)N4CCN(c5ccccc5)CC4)cc3c21 | inactive |  |
| CC(C)(C)OC(=O)N1CCC(c2c(C(=O)Nc3cccc(C(F)(F)F)c3)cnn2-c2ccc(F)cc2F)CC1 | inconclusive: 29.1 µM [inhibitor, single point] |  |
| Cc1ccc(-n2cnc3c(sc4nccc(N(C)C)c43)c2=O)cc1 | inconclusive: 11.6 µM [inhibitor, partial curve] |  |
| Cc1cnc(C)c(-c2cc(F)cc3c2OC(CNC(=O)Cc2ccccc2C)C3)n1 (stereo not given) | inconclusive: 29.1 µM [inhibitor, single point] |  |
| COc1ccccc1N1CCN(C(=O)Cc2c(C(=O)O)[nH]c3ccc(Cl)cc23)CC1 | inconclusive: 23.1 µM [inhibitor, partial curve] |  |
| COc1cc2nc(NC(=O)c3ccccc3)sc(=O)c2cc1OC | inactive |  |
| CC(C)CCNc1nc(N)c([N+](=O)[O-])c(NCCO)n1 | inconclusive: 29.1 µM [inhibitor, single point] |  |
| CCN1CCN(C(=O)c2ccc(Cl)c(S(=O)(=O)N(C)c3ccccc3)c2)CC1 | inactive |  |
| CCOC(=O)c1ccc(N2C(=O)CC(N(C)CCc3ccc(OC)c(OC)c3)C2=O)cc1 (stereo not given) | inconclusive: 20.6 µM [inhibitor, single point] |  |
| Cc1ccc(-c2nn3cnnc3c3ccccc23)cc1 | inconclusive: 18.4 µM [inhibitor, single point] |  |

| Structure (SMILES) | Potency | activity change, negative = growth inhibition |
| --- | --- | --- |
| O=C(NC1CC1)c1nc2c(nnn2Cc2ccccc2Cl)c(=O)[nH]1 | inconclusive: 10.3 µM [inhibitor, partial curve] |  |
| COc1ccc(S(=O)(=O)Nc2ccc3c(c2)N(C(C)=O)CCC3)cc1OC | inconclusive: 20.6 µM [inhibitor, single point] |  |
| COc1ccccc1N=Cc1c(C)[nH]n(-c2ccc(C)cc2C)c1=O | inactive |  |
| O=C(Nc1ccc(NC(=O)c2cccs2)cc1)c1ccco1 | inconclusive: 32.6 µM [inhibitor, partial curve, poor fit] |  |
| Brc1ccccc1CN1CCC(N2CCCCC2)CC1 | inconclusive: 29.1 µM [inhibitor, partial curve, poor fit] |  |
| CC(=O)c1ccc(OCCCC(=O)Nc2ccc(C)c(S(=O)(=O)N3CCOCC3)c2)cc1 | inconclusive: 16.4 µM [inhibitor, single point] |  |
| CC1CCN(S(=O)(=O)c2ccc3ncn(CC(=O)Nc4ccccc4C(F)(F)F)c(=O)c3c2)CC1 | inconclusive: 25.9 µM [inhibitor, single point] |  |
| N#Cc1ccc(C(=O)CSc2n[nH]c(=O)n2-c2cccnc2)cc1 | inconclusive: 25.9 µM [inhibitor, single point] |  |
| CCn1c(SCC(=O)N2c3ccccc3CCc3ccccc32)nc2c1c(=O)n(C)c(=O)n2C | inconclusive: 18.4 µM [inhibitor, single point] |  |
| CC(c1ccccc1)N1CC(C(=O)Nc2ccc(F)cc2)CC1=O (stereo not given) | inactive |  |
| Cc1nn(-c2ccccc2)c(-n2cccc2)c1C(=O)NCc1ccccc1Cl | active: 25.9 µM |  |
| CC(=O)N/N=C/c1cc([N+](=O)[O-])ccc1OCCOc1ccccc1 | active: 16.4 µM |  |
| O=C(Nc1c(F)cc(F)cc1Br)c1cc(S(=O)(=O)N2CCN(c3ccccn3)CC2)ccc1F | active: 25.9 µM |  |
| O=c1c(-c2ccc3c(c2)OCCO3)coc2cc(O)cc(O)c12 | inconclusive: 29.1 µM [inhibitor, single point] |  |
| COc1ccc(C)cc1NC(=O)c1cc2c(s1)-c1ccccc1SC2 |  | inconclusive: -32.6% [inhibitor] |
| Cc1nn(C2CCS(=O)(=O)C2)c(Cl)c1/C=C/C(=O)OCC(=O)Nc1ccc2c(c1)OCO2 (stereo not given) | inactive |  |
| CC(=O)Nc1cc(C(=O)NCc2ccc(F)cc2)ccc1Sc1ccc(C)cc1 | inconclusive: 18.4 µM [inhibitor, single point] |  |
| NC(=O)c1cc([N+](=O)[O-])c(Cl)cc1NCc1ccccn1 | active: 25.9 µM |  |
| CCc1nc2ccc(C(=O)Nc3cc(-c4ccccc4)ccc3OC)cn2c1N(C)CCCc1ccccc1 | inconclusive: 18.4 µM [inhibitor, single point] |  |
| Cc1cc(O)ccc1N1C(=O)c2cccc3cc([N+](=O)[O-])cc(c23)C1=O | inconclusive: 3.26 µM [inhibitor, partial curve] |  |
| COC(=O)CC1Oc2ccccc2N(Cc2ccc(C)cc2)C1=O (stereo not given) | active: 25.9 µM |  |
| CCOC(=O)c1ccc(S(=O)(=O)NC2CCCCCCC2)n1C | inconclusive: 29.1 µM [inhibitor, single point] |  |
| CN(C)c1ccc(C(CNC(=O)Cc2ccc(Cl)cc2)N2CCOCC2)cc1 (stereo not given) | inconclusive: 29.1 µM [inhibitor, single point] |  |
| CCOC(=O)C1CCN(C(=O)CSc2n[nH]c(-c3ccccc3Cl)n2)CC1 |  | inconclusive: -31.4% [inhibitor] |

| Structure (SMILES) | Potency | activity change, negative = growth inhibition |
| --- | --- | --- |
| CN1C(=O)CSc2ccc(NC(=O)N3CCc4ccccc43)cc21 | inconclusive: 35.5 µM [inhibitor, single point] |  |
| CC(=O)Nc1ccc(S(=O)(=O)Nc2ccc(F)c([N+](=O)[O-])c2)cc1 | inactive |  |
| O=C1CN(C(=O)c2ccc(Cl)cc2Cl)C(c2ccc(F)cc2)c2cc(F)ccc2N1 (stereo not given) | inconclusive: 29.1 µM [inhibitor, single point] |  |
| O=c1[nH]c(SCCc2ccccc2)nc2c1CCC2 | active: 7.31 µM |  |
| COc1ccc(-c2cc(C(=O)N/N=C(\C)c3cccnc3)c3ccccc3n2)c(OC)c1 | active: 13 µM |  |
| Brc1ccccc1-c1nc2c3ccccc3ncn2n1 | inconclusive: 14.6 µM [inhibitor, partial curve, poor fit] |  |
| CC(=O)Nc1ccc(S(=O)(=O)Nc2cc(Cl)ccc2N2CCOCC2)cc1 | inconclusive: 18.4 µM [inhibitor, single point] |  |
| CCCCn1c(N)c(N(CCC(C)C)C(=O)COC(=O)/C=C/c2ccc(F)cc2)c(=O)[nH]c1=O | inconclusive: 29.1 µM [inhibitor, single point] |  |
| COC(=O)c1ccc(COc2ccc(/C=N/O)cc2)o1 | inactive |  |
| CN(CCOc1ccccc1)CC(O)COc1ccccc1 (stereo not given) | inconclusive: 25.9 µM [inhibitor, single point] |  |
| CCOC(=O)c1ccc(Nc2ncnc3c2cnn3C)cc1 | inconclusive: 23.1 µM [inhibitor, single point] |  |
| Cc1cccc(NC(=O)c2ccc(Cl)c(NC(=O)c3ccncc3)c2)c1C | inactive |  |
| O=C(NCc1cccs1)c1nn(-c2ccccc2)nc1CO | inconclusive: 23.1 µM [inhibitor, single point] |  |
| CCCn1c2ccccc2c2cnn(CC(=O)Nc3cccc(C(=O)OCC)c3)c(=O)c21 | inactive |  |
| CN(Cc1ccc(C(F)(F)F)cc1)C(=O)C1CC(=O)N(Cc2ccco2)C1 (stereo not given) | inactive |  |
| CCNC(=O)N(C)c1c(CC)nc2ccc(C(=O)N3CCN(S(=O)(=O)CC)CC3)cn12 | inactive |  |
| Cc1ccc(S(=O)(=O)c2nc(-c3ccco3)oc2SC(C)C)cc1 | inconclusive: 23.1 µM [inhibitor, single point] and inconclusive: 29.1 µM [inhibitor, single point] |  |
| O=c1[nH]n(-c2ccc([N+](=O)[O-])cc2)c(=O)c2ccccc12 | inactive |  |
| Cc1cc(C)n2c(SCc3nnc(-c4cccs4)o3)nnc2n1 | inactive |  |
| CCc1nn(CCCC(=O)NCc2ccccc2C)c(=O)c2cc3occc3n12 | inactive |  |
| Cc1cnc(C)c(Nc2nc(C(N)CCc3ccccc3)cs2)n1 (stereo not given) | active: 18.4 µM |  |
| CCCCCN1C(=O)Cn2c(nc3ccccc3c2=O)C1C (stereo not given) | inconclusive: 29.1 µM [inhibitor, single point] |  |
